Results published in PubChem BioAssay AID1508642 (National Center for Advancing Translational Sciences (NCATS), 2021).
Out of some 43,000 compounds screened, about 200 (0.47%) were called active. Another 12% or so got no clear call; they are omitted. The call rests on the fitted dose curve; in most records, active means well fitted cell-killing curve with a large enough effect; inconclusive means small, poorly fitted or top-dose-only effect, or effect the other way; inactive means flat fitted curve, though single readings scatter. The list shows a part of the results.

assay: Cell viability qHTS assay in S16 Pmp22-F2sN cells; conditions: S16 Pmp22-F2sN Schwann cells viability, CellTiter-Glo, 24 h; series mostly up to 57.5 µM; activity change, negative = cytotoxicity: at the top concentration; further: nearly all actives have a fitted effect of over 65% in size
Method in brief: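 Viability was measured by CellTiter-Glo luminescence (15 min, room temperature). This followed 24 h at 37 °C of compound exposure (23 nL pin transfer) in S16 Pmp22-F2sN Schwann cells, 500-1,000 per well.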
On the % scale 0 is the no-effect control and ±100 the full control effect.

Row | SMILES | activity change, negative = cytotoxicity
1 | COc1ccc(NC(=O)c2ccc3c(c2)nnn3C2CCCC2)cc1Cl | inactive: 6.11%
2 | Cc1ccc(Cn2c(C(=O)O)c(CNCc3cccs3)c3ccc(C)cc32)cc1 | inactive: -1.64%
3 | Cc1ccc(Cl)cc1NC(=O)c1ccc2snnc2c1 | inactive: 26.2%
4 | COc1cc(NC(=O)NCCn2nnc3cc(S(=O)(=O)N(C)C)ccc32)cc(OC)c1 | inactive: 8.39%
5 | COc1ccc(C(=O)Nc2nnc(S(=O)(=O)N(CC(C)C)c3ccccc3)s2)cc1 | inactive: -0.506%
6 | COc1ccc(OC)c(C2C(C(=O)Nc3ccccc3OC)=C(C)Nc3c(C(=O)Nc4ccc(F)cc4)cnn32)c1 (stereo unspecified) | inactive: 1.7%
7 | COc1ccc(C(=O)Nc2c(C(=O)c3ccccc3)oc3ccccc23)cc1 | inactive: 9.93%
8 | CCOC(=O)c1cccc(NC(=O)C2CCCN(c3nnc(C)c4c(C)n(-c5ccccc5)nc34)C2)c1 (stereo unspecified) | inactive: 13%
9 | O=C(Nc1cc(Cl)cc(Cl)c1)c1cc(S(=O)(=O)N2CCc3ccccc3C2)ccc1F | inactive: -14.5%
10 | COc1ccc(NC(=O)c2cc3cc(C)ccc3n2C)cc1 | inactive: 6.89%
11 | Cc1ccc(-c2nnc3ccccc3c2C(=O)Nc2cccc(Cl)c2)cc1 | inactive: -2.31%
12 | Cn1c(=O)c(=O)n(C)c2cc(N3CCOCC3)c(NS(=O)(=O)c3ccc(F)c(Cl)c3)cc21 | inactive: -0.118%
13 | Cc1cccc(-c2nc(SCC(=O)NCc3ccco3)c3c(=O)n(C)c(=O)n(C)c3n2)c1 | inactive: -2.33%
14 | Cc1ccc(Cn2c(CNS(=O)(=O)c3ccc(Cl)s3)nc3cccnc32)cc1 | inactive: -12.6%
15 | Cc1cc2[nH]c(=O)c(=O)[nH]c2cc1S(=O)(=O)N1CCN(c2cccc(C)c2C)CC1 | inactive: 20.7%
16 | CCOC(=O)C(=O)Nc1c(C(=O)Nc2cccc(F)c2)oc2ccccc12 | inactive: 0.456%
17 | COc1ccccc1N1CCN(c2nc3c(S(=O)(=O)c4ccc(C)c(C)c4)nnn3c3ccc(Cl)cc23)CC1 | inactive: 6.84%
18 | CCOC(=O)c1ccc(NS(=O)(=O)c2cc(Br)cc3c2N(C(C)=O)C(C)C3)cc1 (stereo unspecified) | inactive: -0.415%
19 | CCN(CCCNC(=O)c1nn(-c2ccc(OC)c(Cl)c2)c(=O)c2c1c1ccccc1n2C)c1cccc(C)c1 | inactive: 4.73%
20 | CCc1ccccc1Nc1cc(C(=O)NC2CCC(C)CC2)c2ccccc2n1 (stereo unspecified) | inactive: 1.73%
21 | COc1ccc(CNC(=O)c2cc(-c3ccc(C)c(C)c3)n[nH]2)cc1 | inactive: -14.9%
22 | O=C(Nc1nnc(S(=O)(=O)N2CCc3ccccc32)s1)c1ccccc1 | inactive: 0.126%
23 | CCOc1nc(-c2ccc(C)cc2)ccc1-c1noc(-c2ccccc2F)n1 | inactive: 4.54%
24 | CCOC(=O)c1c(NC(=O)COc2cccc(C(F)(F)F)c2)sc2c1CCCCC2 | inactive: 0.225%

Row | SMILES | activity change, negative = cytotoxicity
25 | CC(C)COc1ccc(C(=O)N2CCN(CCc3ccccn3)CC2)cc1 | inactive: 5.93%
26 | COc1ccc(CCNC(=O)CCc2c(C)c3cc4c(C)c(C)oc4cc3oc2=O)cc1 | inactive: -8.55%
27 | COc1ccc(NC(=O)CC(C)n2nc(C)cc2C)cc1Cl (stereo unspecified) | inactive: -1.54%
28 | CCOc1ccc(CCNC(=O)Cn2ncn3c(cc4ccccc43)c2=O)cc1OCC | inactive: 5.5%
29 | CCn1c(C(=O)Nc2cc(Cl)ccc2C)cc2sc(Cl)cc21 | inactive: 21.9%
30 | COc1cc(NC(=O)c2cnc3c(-c4ccc(F)cc4)c(C)nn3c2C)cc(OC)c1 | inactive: -19.5%
31 | Cc1ccc(Sc2c(C(=O)NCc3ccccc3C)[nH]c3ccccc23)cc1 | inactive: 6.05%
32 | Cc1ccc(-c2nc3ccc(Cl)cn3c2Nc2ccc3c(c2)OCCO3)s1 | inactive: 13.8%
33 | CCN(CC)S(=O)(=O)c1ccc2oc(C(=O)Nc3ccc(Br)cc3F)c(C)c2c1 | inactive: -3.75%
34 | COc1ccc(CNC(=O)CN2C(=O)CCCc3ccccc32)cc1 | inactive: 3.76%
35 | N#Cc1ccccc1Cn1c(=O)n(Cc2ccc(C(=O)NC3CCN(Cc4ccccc4)CC3)cc2)c(=O)c2ccccc21 | inactive: 4.68%
36 | CCCOc1ccc(CN(C(=O)c2nc(SC(C)C)ncc2Cl)C2CCS(=O)(=O)C2)cc1 (stereo unspecified) | inactive: -9.55%
37 | CCOc1ccc(/C=C/c2nc(C#N)c(Nc3ccc(OC)cc3)o2)cc1 | inactive: 2.58%
38 | CCNC(=O)c1ccc2nc(Cc3ccccc3)oc2c1 | inactive: -3.57%
39 | COc1cc2[nH]c(=O)n(CCCCCC(=O)NCCc3ccccc3)c(=O)c2cc1OC | inactive: -0.641%
40 | Fc1ccc(-c2ccc(CNCCSc3nnnn3-c3ccccc3)o2)cc1Cl | inactive: -9.24%
41 | O=C(Nc1c(C(=O)Nc2cccc(F)c2)oc2ccccc12)c1cc2ccccc2o1 | inactive: -1.16%
42 | CCOC(=O)c1cc(-c2ccccc2)n(-c2cccc(C(=O)N(CC)c3ccccc3)c2)c1C | inactive: 5.32%
43 | COc1ccc(N2CC(NC(=O)COc3ccccc3C)CC2=O)cc1OC (stereo unspecified) | inactive: -0.745%
44 | CCN1c2cc(C)ccc2-n2cccc2C12CCN(C(=O)Nc1cc(OC)c(OC)c(OC)c1)CC2 | inactive: -13%
45 | Cc1ccc(S(=O)(=O)c2nc(-c3ccco3)oc2SCc2ccccc2Cl)cc1 | inactive: -7.67%
46 | COc1ccc(N2CCN(C(=O)NCc3noc4ccccc34)CC2)cc1 | inactive: -1.36%
47 | Cc1cc(C)cc(-n2ccn3c(CC(C)(C)CC(=O)O)nnc3c2=O)c1 | inactive: 13%
48 | COc1cccc(NC(=O)C2CCCN2S(=O)(=O)c2ccc3c(c2)C(C)(C)C(=O)N3C)c1 (stereo unspecified) | inactive: -10.1%

Row | SMILES | activity change, negative = cytotoxicity
49 | Cc1ccc(-n2c(SCC(=O)Nc3cccc(F)c3)nc3c(oc4ccccc43)c2=O)cc1C | inactive: -19.2%
50 | Cc1cccc(C(=O)OCc2cc(=O)n3nc(C4CCCCC4)sc3n2)c1 | inactive: 1.22%
51 | O=C(Cc1cccs1)NC1CC(=O)N(c2ccc(Cl)cc2)C1 (stereo unspecified) | inactive: -0.193%
52 | CC(C)Sc1ncc(Cl)c(C(=O)N(Cc2ccc(F)cc2)C2CCS(=O)(=O)C2)n1 (stereo unspecified) | inactive: 2.76%
53 | Cc1ccc(-c2nn3c(-c4ccccc4)nnc3c3ccccc23)cc1 | inactive: 3.28%
54 | CC1=C(C(=O)Nc2ccc(C)cc2)C(c2ccc(Cl)cc2)n2nnnc2N1 (stereo unspecified) | inactive: 15.3%
55 | Cc1ccc(NC(=O)CN2C(=O)C(C)(C)c3ccccc32)cc1 | inactive: -10.9%
56 | CCOc1ccc(N2CC(NC(=O)Cc3ccccc3)CC2=O)cc1 (stereo unspecified) | inactive: -2.99%
57 | COc1ccc(N2Cc3cccc(C(=O)Nc4ccc(C)c(C)c4)c3C2=O)cc1 | inactive: 10.2%
58 | O=C(NCCC1=CCCCC1)c1ccc2c(c1)N(Cc1ccccc1F)C(=O)c1ccccc1S2(=O)=O | inactive: -4.67%
59 | CCc1cccc(N2C(=O)CS(=O)(=O)C23C(=O)N(Cc2ccc(F)cc2)c2ccc(C)cc23)c1 (stereo unspecified) | inactive: -2.22%
60 | CCc1ccc(NC(=O)CN2C(C(=O)OC)=C(c3ccccc3)c3ccccc3S2(=O)=O)cc1 | inactive: -2.03%
61 | CC(C)CCNC(=O)C1CCC(CNS(=O)(=O)c2cccc3nsnc23)CC1 (stereo unspecified) | inactive: -18.8%
62 | CCCc1nn2c(=O)cc(COC(=O)c3ccccc3NC(=O)c3ccc(OCC)cc3)nc2s1 | inactive: -13.9%
63 | O=C(Nc1ccc(Cl)cc1F)c1cc(S(=O)(=O)NC2CCCCCC2)ccc1F | inactive: -4.45%
64 | O=C(CSc1nc(=O)n(Cc2ccccn2)c2c1CCC2)Nc1cccc(Cl)c1 | inactive: 18.9%
65 | COCCNC(=O)CSc1nc(-c2ccc(C)cc2)[nH]c1-c1ccc(OC)cc1 | inactive: 0.55%
66 | Cc1ccc(C(=O)c2cn(Cc3ccccc3)c3ccccc3c2=O)cc1 | inactive: -3.11%
67 | Cc1cccc(-c2nc3cc(NC(=O)COc4ccccc4F)ccc3o2)c1 | inactive: 9.96%
68 | Cc1cccc(NC(=O)c2oc3ccccc3c2NC(=O)Cc2coc3cc(C)cc(C)c23)c1 | inactive: -2.17%
69 | Cc1ccc(-c2c3c(=O)n(C)c(=O)n(C)c3c3c(C)nc4ccccc4n23)cc1 | inactive: -4.55%
70 | COc1ccc(NC(=O)Cn2ccn(-c3ccc(C)c(C)c3)c(=O)c2=O)cc1Cl | inactive: 3.38%
71 | Cc1cc(N2CCN(c3ccc(F)cc3)CC2)n2cnnc2n1 | inactive: 3.1%
72 | Cc1ccc2c(CC(=O)Nc3ccc(S(=O)(=O)N4CCCC(C)C4)cc3)coc2c1 (stereo unspecified) | inactive: 10.2%

Row | SMILES | activity change, negative = cytotoxicity
73 | CC1CCN(S(=O)(=O)c2ccc3c(c2)N(CC(=O)NCCN(C)C)C(=O)CS3)CC1 | inactive: 1.54%
74 | O=C(NCCc1ccccc1)c1ccc2c(c1)CCN2S(=O)(=O)c1ccc(Cl)cc1 | inactive: -25.4%
75 | O=C(Cn1c(=O)c2cccn2c2ccc(F)cc21)Nc1cccc(F)c1 | inactive: 5.64%
76 | CCCCN(C)C(=O)C1CCC(Cn2c(=O)[nH]c3ccsc3c2=O)CC1 (stereo unspecified) | inactive: -18%
77 | COc1ccccc1CNc1ncnc2c1nc1n2CCCC1 | inactive: -3.81%
78 | Cc1ccc(Cl)cc1NC(=O)c1cc(S(=O)(=O)N2CCOCC2)cn1C | inactive: 8.29%
79 | COc1ccccc1CNS(=O)(=O)c1c(C)nc2sc(C)cn2c1=O | inactive: 6.73%
80 | Cc1cc(NC(=O)c2cc(-c3ccc(F)cc3)on2)nn1Cc1ccc(Cl)cc1 | inactive: 5.12%
81 | Cc1oc2ncnc(N3CCOCC3)c2c1C(=O)Nc1ccc(Br)cc1F | inactive: 7%
82 | Fc1ccc(-n2nc(-c3ccccc3)c3cnc4ccccc4c32)cc1Cl | inactive: -17.9%
83 | CCOc1ccc(-c2cc3c(=O)n(CC(=O)NCc4ccccc4)ccn3n2)cc1 | inactive: 1.51%
84 | OC(c1ccccc1)c1nc2ccccc2n1Cc1c(F)cccc1Cl (stereo unspecified) | inactive: -6%
85 | Cc1ccc(CNC(=O)Cn2ccn(-c3ccc(F)c(F)c3)c(=O)c2=O)cc1 | inactive: 1.54%
86 | CCC(Sc1nc2ccncc2[nH]1)C(=O)Nc1cc(C)ccc1C (stereo unspecified) | inactive: 2.68%
87 | CCCn1c(=N)c(C(=O)NCc2ccco2)cc2c(=O)n3cc(C)ccc3nc21 | inactive: 14.1%
88 | Oc1c(C(c2ccc(Cl)cc2Cl)N2CCN(Cc3ccccc3)CC2)sc2nc(-c3ccco3)nn12 (stereo unspecified) | inactive: 3.94%
89 | CC(=O)c1cccc(NC(=O)c2cc3sc(Cl)cc3n2C)c1 | inactive: 1.42%
90 | CCOCCCNC(=O)C(c1ccc(Cl)cc1)N(Cc1ccc2c(c1)OCO2)C(=O)c1ccc(NC(C)=O)cc1 (stereo unspecified) | inactive: -19.9%
91 | CCOc1ccc(C(=O)Nc2ccc(C(=O)OCc3cc(=O)n4c(C)csc4n3)cc2)cc1 | inactive: -23.3%
92 | Cc1ccc(CNC(=O)c2ccc(N3Cc4ccccc4Oc4ncccc43)s2)cc1 | inactive: -14.4%
93 | COCCNC(=O)CCCn1c(SCc2ccccc2C)nc2c(sc3ccccc32)c1=O | inactive: -27.2%
94 | CCn1cc(/C=C(\NC(=O)c2ccccc2Cl)C(=O)NCCCn2ccnc2)c2ccccc21 | inactive: -1.59%
95 | Cc1ccc(C2N3CC4(C)CN2CC(c2ccccc2)(C3)C4=O)cc1 (stereo unspecified) | inactive: 7.14%
96 | CCOc1ccc(NC(=O)Cn2nc(CC)n3c(cc4sccc43)c2=O)cc1 | inactive: 2.6%
